Measurements published in article PMC10726135.
The other results are listed elsewhere or left out. At the low end of the ranking the order means little. Measured with an extract: partners may take part in the binding.

Target: T1, HNF4alpha2 (COS-7 nuclear extract) (UniProt P41235)
T1 sequence: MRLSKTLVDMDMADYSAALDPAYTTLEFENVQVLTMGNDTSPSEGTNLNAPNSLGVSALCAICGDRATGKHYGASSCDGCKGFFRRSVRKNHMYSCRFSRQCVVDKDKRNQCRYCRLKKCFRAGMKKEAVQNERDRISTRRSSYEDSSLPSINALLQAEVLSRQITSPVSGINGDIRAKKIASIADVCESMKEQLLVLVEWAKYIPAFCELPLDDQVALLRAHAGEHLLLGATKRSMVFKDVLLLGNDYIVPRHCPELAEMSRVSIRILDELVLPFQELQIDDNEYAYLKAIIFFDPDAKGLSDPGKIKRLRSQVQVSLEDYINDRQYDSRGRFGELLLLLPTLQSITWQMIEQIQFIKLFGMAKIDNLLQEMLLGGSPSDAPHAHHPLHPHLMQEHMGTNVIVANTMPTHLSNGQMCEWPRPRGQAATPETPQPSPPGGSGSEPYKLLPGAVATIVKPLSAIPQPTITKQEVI
Assay: protein-binding microarray
Conditions: COS-7 nuclear extract on double-stranded Agilent 4x180k PBM; binding buffer, salt, pH and temperature not given; high values mean tight binding; double strand, one strand shown; sequences stand for … in …GCCTAGGGAGATTAGAGTATCGGTCGA

Sequence	binding signal (log2 normalized intensity)
CCACAGTATCCCTTGCTCAACTCCCTCTGA	-1.18
CAAACAAATGCAAAACTGGCAAAACTGGTC	-1.03
TAATCACTGCCCTTTGGTGCCTCTTTTTTC	2.13
GCTGCCCTGGTAAGTTCCACTGCATCAGTG	-1.02
TTGATCATTCCTGCACAGGACTGCTCTCTA	-0.803
TTTTAAGGTCTGGCATTCTTTTTGACCTTT	7.55
TAGGTTATCTTTGGAGAATGCCTTTTGTGT	2.15
AGAAGGCAAAAATGCAGGCAATGAATAGAA	-1.06
TGTTTTTTGCCCTTTGTACCCACACACACC	6.48
GTTCACAAATAGCAGAAAATCCAGGTGCAG	-0.723
TCCCCACTTATTACCGGTGTGACTTTGGTT	2.1
AAACTCCTTCCCTTTCATGTTGAACGTCTT	2.12
CCGCTGGCCTCCCCATCCTCATGACAGTAC	2.96
TGGCCCTCTTCCAAGTGTTCTTTACTTCCT	0.969
CACTTGTGTGTAGACTCCAGGCTTGTCCTT	1.25
TGAAGTTACAAAGGTCACACACCTGTGCAA	3.75
CTGGTTGAGGCAAGCAAAAGCCAAGGCATC	-1.2
GCCCTGGTTGAGGAATTTGGCTCTAGAGGA	-1.16
GGGCCAGCAAGAGGTGACCCCAGGGCAAAG	2.92
CAAACTGCATTCTTGTAGGTTTTTTTTTTT	2.35
AGATAGAGGGCTGCCAAAGCTCACAGATGT	-1.13
AGCCCGAGCTGCTGGAACAGGCTGGGACAC	-1.26
TTTGCTCTGATCTTTGACTTCTAGTTCTTA	1.6
CCAGAACTATCATACACTATTTTCCTAAAT	-1.2

Sequence	binding signal (log2 normalized intensity)
ACGAAGAGCAAACATGGGCTTAAGACAAGA	-1.12
ACTTAACAAGTGAAAGTCTAAAGTTCAGTG	4.46
CATTTCAGTGAACTTTTCAATGCTCCAGTA	0.573
CCTTTTCACGCTAAGAAGGAATCTGTTCAC	1.45
GGAATGAAACCAGTTTCAAAACCTGATTCT	-1.25
ACTGGGAGATAATGCACTGGTGACTTTAAG	0.195
CAACTAAAGGAATGCGCCTGAACTGACTGC	-1.09
CCAGTCGCTTAACCTCTTGATCCTGAGTTT	1.13
TTGAACTGAAGGATATTGGCAACGCCTCAG	-0.936
CAAAGGAGCTTTATTGGTTCCATAAGTCAA	-0.00154
CCCAGCGGATTAATATCCAGAGGCTGAGCA	-1.2
CCTGACCTGAAAGGTAGGCAGAGAGGCTGC	-1.34
GCTCTCCCACTCCCCCTGCTGGACACCGAG	3.37
TTATCTCACAAGCATGGGCCTCCTCTTCTT	-1.11
CCTTTTTTTTGTGTGTGTGTCAGAGACCCA	1.94
GGACTGTGACCCCACCTCTCAGACAGAGCT	2.75
CAGGGTAGAAAAGAGTTAAAAAAAAAAAAA	-1.08
TGATAGCTAGAGAGTTCAAGAAGGGCAGTT	0.723
TACTGAAATGCCAAAAAAGAAGAAGTGAAA	-1.13
AGTCCACCAACTCTGTGAATTCATTTTTTT	0.272
TTTGCTCTGTTGTGTCAAAGGTCACTTAGT	5.48
CTCTGGAGTGCAGGTGGGAGGGGTGGACTT	3.01
CGACTCAGTGGGGGGGGGGGGGGGGGTGTG	-1.14
TCAGGGCAAAGACTCAAATCCAAGCTGGCT	-1.07

Sequence	binding signal (log2 normalized intensity)
GCATTTGCTCCCTGACTTGGTTTACAAGGT	0.551
CAGTCATTGCCATCTGCAAGAGAGAATAGA	-1.12
TGCAGGTTCATGGGAGAGCACTTGGTGCCT	0.818
ACCCTCTGGGGCCGGGAGCAGGGAGCGAGA	-1.06
AGTTGGAGGAACAGGTGGGGGTAAACATAG	-1.14
GCAAGGCTAGAGATTCTCCCTGGGGCCTCT	-1.16
TGGCATGATCCCTGACTCATAGCTCCAGAG	-1.17
GATAAAATGAAATCGCCTGATTGGTCATAC	0.363
GTGACCTTTGACCTCTGGCCTTTGCAGTTA	8.21
TCAGATGAGACTTTGGACTTTTGAACTAAG	6.42
CAGAGGCTTCCTCTTTGGTGCAAAGGTCAG	6.86
TGAGAGAGAAAGAGACAGAGAGAGAGAGAG	-1.17
GAAGTTTTGCAATATAGGCCAGGCATACCT	-1.1
ACCCAGATAAGTTATCCTTGTTCTATGTTC	0.342
CTCGGGGATTAGCGATCATGGGTGACCCGT	3.08
TTCTACAGTGTTTACCGGATGAAAAGTGTT	1.54
GATAAAGGAACAGGCCCCAGGGACTTTGGC	0.839
TATGTGATCAGATGTGGACAATCATTGTGC	1.53
AGCCCTGGTTTATCTGTTGTCAAACCCACA	0.184
GCAAAGTTCACCAGGAAGCAAGACAATGCA	-1.16
TTTGGAGCCGGTGTCAGTTTCCACTCTGCC	-1.04
AATGTAAACATCAAGGAAGAGAACTCCCTA	-1.15
AGGGACTTTGATCTTCTTACCCCTTTGCTG	2.86
TGCATCAAACAGCTTAGGGTTCAAACTCCA	3.77

Sequence	binding signal (log2 normalized intensity)
ATCACTGAATCGAGGCTATTCTGTAACACA	-0.83
ACACACACATACACACACACACACACACAT	-1.18
GGCAAACATTTGCGCAAACATAAAGGCAAA	-1.15
GAGAAAGAGACAGAGAGAGAGAGAGAATGA	-0.959
TGTTCTTTACTTCCTTTTGTTCCTGCTCTA	1.76
CAAAGGTCATGTTTTCAAACAATGAGAGGC	3.2
ATCTTATCTAGTTTCCTAGCTCACTGATAA	-1.16
AGGGGGAATGCCAACAGGTCAGGGAGTAGG	-1.13
ACCTACAGCTGGGGCCACCTTTTCAGCTTC	-1.04
GGAGGCTGGGGCCTCCTGGCTGGGCAGGCT	-1.29
TGCCTAGTGGAAGGTATGGAGCTAAACAAT	-1.14
TCCCTCCCCTGTGCAAACTTTTTCCTTTTC	1.52
CCTAGAGTTACAGTCACTCCCTATCAACCA	-1.13
ACCTTGACCCAAGAAATAAAAACAGCTGGG	-1.07
AGCTTCAGGGATCAAATCCTAACATGCTGC	-1.19
GCGTTTTTCTTTGTACTGCTTCCAAAACAT	0.116
TAGAAGGCTTAAGATAAGGGACATCAACAA	-1.2
TTCCATGCAGCAGCATCCAGCCCCAGGCTG	-1.18
TCTGTACAAAACATTTGGTGTAAGCACTTG	1.03
GCTTATGCATGGGAGATCTTCAGTAAGAGG	-0.283
CCTGGATAAGCCAGATAATTTGTGCAACAT	-1.04
